Experimental findings from the RNAGym collection of RNA variant scans (doi:10.7554/elife.90254) are described below.

To fix the notation:
B1: LINE1-mini (parent)
chain: GGCAGAGCUCAACACAGCGUGGCAAAGUGGCUGUGGCUAGACUGCC

The source gives no read counts; variants with many changes may rest on few reads.

The variants in this series derive from B1. Nature of the series: self-cleavage, relative activity (ratio to wild type); higher = more cleavage; in vitro, sequencing; the parent is a self-cleaving ribozyme.
For GGCAGAGCUCAACACAGCGUGGCAAAGUGGUGGUGGCUAUACUGCC, the self-cleavage was 0.04.
Consider GGCAGAGCUCAACACAGCGUGGCAAAGUGACUGUGGCUAGUCGGCC, for which the self-cleavage is 0.19.
For the variant GGCAGAGCUCAACACAGCGUGGCAAAGUUGCUGUGGCGGGACUGCC, the self-cleavage came to 0.01.
GGCAGAGCUCAACACAGCGUGGCAAAGUGGUUGUAGCUAGACUUCC: the self-cleavage was determined as 0.04.
The figure for GGCAGAGCUCAACACAGCGUGGCAAAGUGAGUGUGGCUAGACUGUC is 0.05; for GGCAGAGCUCAACACAGCGUGGCAAAGUGAAUGUGGUUAGACUGCC it is 0.05; for GGCAGAGCUCAACACAGCGUGGCAAAGUGACAGUGGCUAGAAUGCC it is 0.06.
GGCAGAGCUCAACACAGCGUGGCAAAGUGCCGGUGGAUAGACUGCC: the self-cleavage was determined as 0.11.
In the case of GGCAGAGCUCAACACAGCGUGGCAAAGUGACUGUGGCGGGACUGCC, the self-cleavage was found to be 0.01.
The figure for GGCAGAGCUCAACACAGCGUGGCAAAGUGGGUGUGACUAGACAGCC is 0.02; for GGCAGAGCUCAACACAGCGUGGCAAAGUGACUGUGGCAAGACUGCA it is 0.17.
For GGCAGAGCUCAACACAGCGUGGCAAAGUGACUGUGAUGAGACUCCC, the self-cleavage came out at 0.07.
In the case of GGCAGAGCUCAACACAGCGUGGCAAAGUGUCUAUUGCUAGACUGCC, the self-cleavage came out at 0.12.
GGCAGAGCUCAACACAGCGUGGCAAAGUGACUGUGGAUAGACUACC: the self-cleavage came to 0.06.
Turning to GGCAGAGCUCAACACAGCGUGGCAAAGUGGAGGUCGCAAGACUGCC, the self-cleavage came to 0.04.
Under GGCAGAGCUCAACACAGCGUGGCAAAGUGGGUUUGGCCACACUCCC stands 0.05; under GGCAGAGCUCAACACAGCGUGGCAAAGUGGUAGUGGCUUGACUGCC, 0.06.
The figure for GGCAGAGCUCAACACAGCGUGGCAAAGUGGUUGUAGCUGGACUGCC is 0.02; for GGCAGAGCUCAACACAGCGUGGCAAAGUGGUUGUGGCAGGACUGCC it is 0.02.
Regarding GGCAGAGCUCAACACAGCGUGGCAAAGUGACAGUGGCUAGAGCGCC, the self-cleavage came to 0.01.
Under GGCAGAGCUCAACACAGCGUGGCAAAGUGGAUGUGGCGAGACUGCG stands 0; under GGCAGAGCUCAACACAGCGUGGCAAAGUGGAUGUGGCUAUACUGUC, 0.03; under GGCAGAGCUCAACACAGCGUGGCAAAGUGGUUAGUGCUAGAGUGCC, 0.03.
In the case of GGCAGAGCUCAACACAGCGUGGCAAAGUGGGUGUGUCUCGACUGCC, the self-cleavage was determined as 0.04.
Under GGCAGAGCUCAACACAGCGUGGCAAAGUGGAUGUGUCUAGACUCCC stands 0.05.
With GGCAGAGCUCAACACAGCGUGGCAAAGUGGUUGUAGCUAGACUGAC, the self-cleavage was 0.03.
As to GGCAGAGCUCAACACAGCGUGGCAAAGUGGUUGUGGCUAGACAGCG, the self-cleavage worked out at 0.02.
As to GGCAGAGCUCAACACAGCGUGGCAAAGUGCCUGUGGCUAGAAUGCA, the self-cleavage amounted to 0.08.
Consider GGCAGAGCUCAACACAGCGUGGCAAAGUGCAUGUGGCUAGACUGAC, for which the self-cleavage was determined as 0.2.
Regarding GGCAGAGCUCAACACAGCGUGGCAAAGUGCAUGUGGCUAGACUGUC, the self-cleavage was found to be 0.94.
Under GGCAGAGCUCAACACAGCGUGGCAAAGUGUCUGUGGCUUGACCGCC stands 0.05; under GGCAGAGCUCAACACAGCGUGGCAAAGUGACUGUGGAUAGACUGCU, 0.11.
Under GGCAGAGCUCAACACAGCGUGGCAAAGUGGUUGUGGCUAACCUGCC stands 0.02.
Under GGCAGAGCUCAACACAGCGUGGCAAAGUGCCCCUGUCUAGACUGCC stands 0.01.
With GGCAGAGCUCAACACAGCGUGGCAAAGUGGAUGUGGAUGACUGCCA, the self-cleavage worked out at 0.02.
As for GGCAGAGCUCAACACAGCGUGGCAAAGUGGAUAUGGUUAGGCUGCC, the self-cleavage amounted to 0.02.
Under GGCAGAGCUCAACACAGCGUGGCAAAGUGGUAGUGGAUGGACUGCA stands 0.03; under GGCAGAGCUCAACACAGCGUGGCAAAGUGCCUAUGGCAAGACUUCC, 0.03; under GGCAGAGCUCAACACAGCGUGGCAAAGUGUGAGUCGCUAGACUGCC, 0.01.
For GGCAGAGCUCAACACAGCGUGGCAAAGUGACUGGUGAUAGACUGCC, the self-cleavage turned out to be 0.07.
As for GGCAGAGCUCAACACAGCGUGGCAAAGUGGAUGUCGCUAGACUGAC, the self-cleavage was 0.07.
Under GGCAGAGCUCAACACAGCGUGGCAAAGUGUCUGUGGCCAGAAUGCC stands 0.1; under GGCAGAGCUCAACACAGCGUGGCAAAGUGAUUGAGGAUAGACUGCU, 0.03; under GGCAGAGCUCAACACAGCGUGGCAAAGUGGAUGUGGCUAGAUUGAG, 0.05.
For the variant GGCAGAGCUCAACACAGCGUGGCAAAGUGGAUAGGGCUAGACUGCG, the self-cleavage came to 0.02.
The figure for GGCAGAGCUCAACACAGCGUGGCAAAGUGACUGUGGCUAGAUUGAC is 0.41.
For GGCAGAGCUCAACACAGCGUGGCAAAGUGGAUGUGGCUACACUCCC, the self-cleavage was found to be 0.02.
GGCAGAGCUCAACACAGCGUGGCAAAGUGACUAUGGCUAUACUGCC: the self-cleavage worked out at 0.16.
Take GGCAGAGCUCAACACAGCGUGGCAAAGUUGCUGGGGCUCGACUCCC: the self-cleavage worked out at 0.01.
In the case of GGCAGAGCUCAACACAGCGUGGCAAAGUGGUUGUGGACCGACUGCA, the self-cleavage was found to be 0.01.
Under GGCAGAGCUCAACACAGCGUGGCAAAGUGACUGUGGUUAGCCUGCC stands 0.02; under GGCAGAGCUCAACACAGCGUGGCAAAGUGCCGGUGGCUAGACUGAC, 0.2; under GGCAGAGCUCAACACAGCGUGGCAAAGUGAAUGCGGCUAGACUGGC, 0.03.
In the case of GGCAGAGCUCAACACAGCGUGGCAAAGUGUGUGUGCCUAGACUGCC, the self-cleavage was 0.04.
GGCAGAGCUCAACACAGCGUGGCAAAGUGGUUGUGGCUCGACUGAC: the self-cleavage was determined as 0.01.
Take GGCAGAGCUCAACACAGCGUGGCAAAGUGUCUGAGCCUAGACUGCC: the self-cleavage was determined as 0.05.
